Reference: the supplement of paper PMC10126150
Values marked as one replicate rest on one cluster of the flow cell; about a third of the high ones do not repeat.

These sequences were tested on ATP (assay: switch fluorescence ratio, 500 uM ATP over buffer (Cy3 cluster intensity, sum of 5 cycles each) (fold (ratio)); higher = stronger signal-on switching upon ATP binding; sequences stand for … in TCGTCGGCAGCGTCAGATGTGTATAAGAGACAGTTTTTTTTTTTTTTTTTTTTTTTTT…TC). Details: aptamer strand: ATP DNA aptamer (quencher-CACCTGGGGGAGTATTGCGGAGGAAGG + anchor), 100 nM annealed; ATP concentration: 500 uM; one replicate.
Method in brief: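 Five buffer/ATP imaging cycles were run on Cy3-labelled switching-strand clusters on a modified Illumina MiSeq flow-cell, with NaOH stripping and re-annealing between cycles. In each cycle, clusters annealed to 100 nM quencher-labelled ATP aptamer were imaged in selection buffer, then after 15 min with 500 uM ATP at 22 °C. Per cluster, the fluorescence ratio is summed target-cycle over summed buffer-cycle Cy3 intensity, averaged per switch-domain sequence. Only clusters within 100-1000 RFU were kept.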
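Further: ATP exposure 15 min at 22 °C before imaging.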

Sequence | switch fluorescence ratio
TGTAACGACG | 1.04
TGTAAGAACG | 1.07
TGTAAGAAGT | 1.01
TGTAAGAGTT | 0.979
TGTAATATTT | 0.973
TGTACGCGGT | 1
TGTACTAAAA | 0.992
TGTAGCAAGT | 1.04
TGTAGCCCGA | 1.02
TGTAGGGGG | 1.02
TGTAGTAAGG | 1.04
TGTAGTCAAA | 0.95
TGTAGTCGTT | 0.992
TGTAGTGGTA | 0.988
TGTAGTGTGT | 0.937
TGTATAAAT | 1.04
TGTATCGTTG | 1.01
TGTATGAGTG | 0.946
TGTATGTAA | 1.04
TGTATTGAGG | 1.02
TGTCAAAATA | 1.04
TGTCAAGGAT | 1
TGTCACAGCA | 1.02
TGTCACGGCT | 1.01
TGTCAGGCTA | 0.966
TGTCATGCAG | 1.01

Sequence | switch fluorescence ratio
TGTCATGTGA | 1.06
TGTCCTAATA | 0.984
TGTCGAGTGG | 1.02
TGTCGCGTCT | 1.03
TGTCGGGGG | 0.995
TGTCGGGGGC | 0.99
TGTCGGTACG | 0.988
TGTCGGTCCT | 1.01
TGTCGGTTTC | 0.986
TGTCGTCTTA | 1.02
TGTCGTGTAT | 0.987
TGTCTAGAGC | 1
TGTCTCTTGT | 0.99
TGTCTCTTTA | 0.925
TGTCTGCTGT | 0.989
TGTCTGGCCG | 1.04
TGTCTGTTTT | 1.03
TGTGAATAAT | 0.978
TGTGACAAAC | 1.07
TGTGACAG | 1
TGTGACGCTC | 1.04
TGTGACGTC | 1.01
TGTGAGCGC | 0.943
TGTGAGTAAG | 1
TGTGAGTACA | 1.02
TGTGATAACT | 0.979

Sequence | switch fluorescence ratio
TGTGATTAA | 1.01
TGTGCCAAGA | 0.988
TGTGCCCGTC | 1.01
TGTGCGAGAG | 1.01
TGTGCGATTG | 0.992
TGTGGCGGGG | 0.993
TGTGGCTCCA | 0.966
TGTGGGAT | 1.01
TGTGGGTTCA | 1.02
TGTGGTCAGG | 1.06
TGTGGTGATG | 1.38
TGTGTAATGG | 1.02
TGTGTACCCA | 0.989
TGTGTACTCG | 0.984
TGTGTACTTT | 1.01
TGTGTCCAGC | 1.05
TGTGTCTTA | 1.01
TGTGTGCAAA | 0.982
TGTGTGCCGA | 1.05
TGTGTGCTGG | 0.977
TGTGTGGCTT | 0.978
TGTGTTCGAG | 0.969
TGTGTTTGGC | 1.02
TGTTAAAATG | 0.961
TGTTAAGGTT | 0.966
TGTTACTATA | 1.08

Sequence | switch fluorescence ratio
TGTTAGCTA | 1.03
TGTTATACCC | 1.03
TGTTATAGGT | 1.01
TGTTATGGGG | 0.977
TGTTCACAGA | 0.99
TGTTCAGTGT | 1
TGTTCATGT | 1.03
TGTTCGCTCA | 0.993
TGTTCGGATC | 0.995
TGTTGATGAT | 0.983
TGTTGATGCT | 0.957
TGTTGCGGTG | 0.962
TGTTGGGATC | 1.05
TGTTGGGGT | 0.975
TGTTTAGTT | 1.04
TGTTTCAAT | 0.929
TGTTTCGAAG | 1.01
TGTTTGTCGG | 0.982
TGTTTTACCT | 0.997
TGTTTTCAAA | 0.989
TGTTTTCGCC | 1.03
TGTTTTGTCA | 1.02
TGTTTTTCAT | 1
TGTTTTTGTG | 1.02
TTAAAACCAC | 1.23
TTAAAATCAT | 0.992

Sequence | switch fluorescence ratio
TTAAACTAG | 0.987
TTAAAGCATA | 1.03
TTAAAGCCGT | 1.01
TTAAAGCTTG | 0.99
TTAAAGGTCG | 1.01
TTAAATCGAG | 0.999
TTAAATGCGC | 1.03
TTAAATGTAT | 1.07
TTAAATGTCA | 0.958
TTAAATTTAA | 1.03
TTAACAACTT | 1.03
TTAACCAACC | 1.21
TTAACCTTGG | 1.01
TTAACGCGTC | 0.983
TTAACGTACC | 1.7
TTAACGTTCT | 0.95
TTAACGTTT | 0.987
TTAACTAGTA | 0.989
TTAACTGATA | 1.07
TTAACTGGCA | 1
TTAACTGTAG | 1.07
TTAAGACCGC | 1
TTAAGCTAA | 0.996
TTAAGGGGT | 0.975
TTAAGTATGC | 1.05
TTAAGTCTCT | 0.985

Sequence | switch fluorescence ratio
TTAAGTGAG | 1
TTAATACAAT | 1.03
TTAATCCAGG | 1.22
TTAATCGGTG | 1.01
TTAATCGTAC | 1.25
TTAATTCAAA | 0.998
TTAATTGCTG | 0.922
TTAATTTAAT | 0.994
TTACAACGTG | 0.976
TTACAACTCG | 1.02
TTACAAGGTC | 1.04
TTACAAGTA | 1.02
TTACAGCACT | 1.59
TTACAGCCAA | 1.02
TTACAGGGAC | 1.5
TTACAGGGGT | 1.15
TTACATACGT | 1.45
TTACATGCTG | 1.03
TTACATGGCT | 1.04
TTACCCCACA | 1.31
TTACCCCAGA | 1.18
TTACCCGAGC | 0.993
TTACCCGTTT | 1.02
TTACCGGTGG | 0.898
TTACCGTCTA | 1.09
TTACCTCCA | 1.42

Sequence | switch fluorescence ratio
TTACGAAATC | 1.29
TTACGATGCA | 1.12
TTACGCCGCA | 1.28
TTACGCGGGG | 1.05
TTACGCTGTT | 1.01
TTACGCTTGT | 1.21
TTACGGCATT | 1.11
TTACGGCCCC | 1.08
TTACGGGAGC | 1.02
TTACGGGTTT | 0.98
TTACGTAGGA | 1.01
TTACTAATGC | 1.03
TTACTCCCTA | 1.52
TTACTCCTCT | 1.12
TTACTCGCA | 1.25
TTACTGTCCG | 1.02
TTACTGTGGA | 1.01
TTACTTACTC | 1.21
TTACTTTAGC | 0.979
TTACTTTGCA | 1.07
TTAGAAAACG | 0.955
TTAGAATAGC | 1.01
TTAGACAAAT | 0.984
TTAGAGAGAC | 1.12
TTAGAGAGCC | 1.01
TTAGAGCCCG | 0.949

Sequence | switch fluorescence ratio
TTAGAGCCCT | 1.02
TTAGAGGTGC | 1.06
TTAGAGTTAT | 0.988
TTAGATAGAG | 0.998
TTAGATCATT | 1
TTAGATGTG | 0.979
TTAGATTTCA | 1.03
TTAGCAATG | 2.05
TTAGCAGGTT | 1.06
TTAGCATGTG | 1.14
TTAGCCGAAG | 1.03
TTAGCCGGTT | 1.16
TTAGCCGTTT | 1.03
TTAGCGATCA | 1.08
TTAGCTAACG | 1.02
TTAGCTGGTT | 1.02
TTAGCTGTG | 0.965
TTAGCTTGTT | 0.961
TTAGGAAGCC | 1.03
